# Assay results from the supplement of paper PMC11417369.
# ± gives the standard deviation of the averaged measurements. This is one part of the list.
# Tested on: PfAP2-LT AP2 domain (GST-tagged)
# Experiment: gcPBM binding intensity (ln(normalized median fluorescence intensity)); higher = stronger DNA binding
# Method in brief: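 The binding buffer was 1× PBS containing 1% milk, 0.2 mg/ml BSA, 0.5% salmon testes DNA and 0.03% Triton X-100. In it, GST-tagged P. falciparum DNA-binding domains expressed in E. coli were applied for 1 h to an Agilent 4 × 180k array of primer-extended double-stranded 36-bp intergenic genomic probes plus negative controls. Binding intensity, read with Alexa488 anti-GST antibody and a 488 nm scan, is the highest Masliner-normalised natural-log median intensity across replicate spots of either probe orientation.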
row,Sequence,gcPBM binding intensity (ln)
1,TTTTATCGTTTTTTTTTTTTTTTTTTTTTTTTTTTT [CACACA_negctrl_site1309],8.71 ± 0.26
2,ATGTAGAAGTAATGCACACATATGTATTTATATATA [CACACA_site5391],9.23 ± 0.5
3,TCTGAAAATTAGAAAAGTACAAAATGGTATAGGAAA [XGTACX_site4396],8.75 ± 0.45
4,ATACAAATTTATATTTCACACATTATTATATACTTA [CACACA_site6034],8.85 ± 0.41
5,ATATATATATATAAATGTACAGGCTTATCTCTTATT [XGTACX_site1828],9.15 ± 0.21
6,TGTATTATATATGTGTGTACATATTTTTTTTTTTTT [XGTACX_site3351],9 ± 0.49
7,AAATTATTTCAAATGTTGCACTAAAAATAAAATTAT [GTGCAC_site9460],8.31 ± 0.41
8,TTTTTATTTATATTTCATTGAAGTTAAATTATTTTA [XGTACX_negctrl_site575],8.2 ± 0.65
9,TACATTCTAATAATTGCACACTGGTTATTAAAAGGA [CACACA_site1614],8.64 ± 0.39
10,TTTTATCAATAAATTCGTACACATGAACTAGAGAGT [XGTACX_site5758],8.63 ± 0.41
11,ATTAGTATATTTCTCTGTACTTACATTAAAATATAA [XGTACX_site2217],8.61 ± 0.35
12,AATTTAATATTCATCTCTAAAGCTATAACAATTACT [CACACA_negctrl_site1079],8.51 ± 0.42
13,TCCTTAAAATATGGTTGTACGTACATCCTAGGTGTT [XGTACX_site7068],8.86 ± 0.45
14,AAAAAAAAGAAAAAAAAAAAAAAAAAAAAAAAAAAA [CACACA_negctrl_site489],8 ± 0.35
15,CGCACACGCAGACACACACACACATATAAATAAATA [CACACA_site7101],9.74 ± 0.37
16,TTTTTTTTTTTGGCTAGTACATATGTATTTAAAATG [XGTACX_site7770],8.6 ± 0.47
17,GGTGAAATTATTTCTACATGCAGAAATAATTAATTA [TGCATGCA_site194],8.52 ± 0.37
18,AATTTAATATAATGCACACATAAAAAAAAAATCAAA [CACACA_site1],8.93 ± 0.37
19,ACATAAATAATAAAAACACACATATGTACCTATATA [CACACA_site6982],9.04 ± 0.47

row,Sequence,gcPBM binding intensity (ln)
1,AAATTATTTCTTTGCGCATGTAGCTTTTATACTATT [TGCATGCA_site819],9.21 ± 0.49
2,AATACATGCTAAAAACGTACACGTATAAAATTATAT [XGTACX_site3169],8.95 ± 0.5
3,AAAAAAAAAAAAAATTGTACATTAAATTAAAAGAAA [XGTACX_site8708],8.3 ± 0.71
4,AAGAAAATATAAAATGCACACTATAAATTGTATATA [CACACA_site7928],8.9 ± 0.38
5,AAAAAAAAAAATACTTGTACTTATATAATATATTAT [XGTACX_site8333],8.51 ± 0.53
6,TGTTGTTCCAATTTTTGTACATAAAACATATATATA [XGTACX_site5719],8.69 ± 0.43
7,TATATATATATTTATACACACACATATATTTATATA [CACACA_site8054],9.13 ± 0.29
8,TTTTTAATATATTAGGTGCACAATAATACACTTTAT,8.74 ± 0.43
9,ATTAGTATAATGTAACTTAGTTAATAGTGCTAATAT [CACACA_negctrl_site764],8.93 ± 0.4
10,CAAAAGTAAGCACGCACACACAACATGAAATAAAAT [CACACA_site165],9.96 ± 0.42
11,TATACACTTATTGGTGGTACAATATATAAATATATG [XGTACX_site3289],8.66 ± 0.34
12,TTTTGATCTGAAGGAACCTAAAAAGGGAAGAGAAAA [CACACA_negctrl_site1656],8.45 ± 0.52
13,AAAAAAAACACGCGCACACACACACCCACCCACCGA [CACACA_site2206],10.32 ± 0.078
14,ACAAAATAAAACATCTGTACATATTATTATTATAAG [XGTACX_site4802],8.7 ± 0.38
15,TATATTTATAACAACACACACAGATCATAAAACTGC [CACACA_site7086],9.34 ± 0.27
16,AAAAAAAAAAAAAAAACACACACATGCACATCATAT [CACACA_site8083],9.56 ± 0.33
17,ATATAAAATATTACGTGTACACATAAATAAAAATAA [XGTACX_site3746],9.06 ± 0.47
18,ATATATATAAATAATTGTACATAATAATAAAATATA [XGTACX_site4839],8.8 ± 0.45
19,ATATTTTGTAACTATACACACATATTTATATTATAA [CACACA_site7433],8.83 ± 0.44

row,Sequence,gcPBM binding intensity (ln)
1,CAAGTAGATATTATACGTACATATATATATATATAT [XGTACX_site8349],9.65 ± 0.25
2,TTTTATACATATTTTACACACTAAAATATACCTATA [CACACA_site6286],8.79 ± 0.49
3,TAAAAAATATACATTCGTACATATATATTATATATA [XGTACX_site7918],8.61 ± 0.43
4,GAAAAAAAAGCTTGCACACGTATTTGCTTTATGTAT [CACACA_site4931],9.22 ± 0.3
5,TACATATATATATTATGTACATAAGGTTTGAGTTCA [XGTACX_site2726],8.79 ± 0.45
6,TTTTTGGTATTATTGTGTACTTATAAATAATATAAT [XGTACX_site4019],8.62 ± 0.36
7,AAAAAAAAATATACATATATATATATATATATATAT [CACACA_negctrl_site1763],9.78 ± 0.14
8,ATATATATATATATTACACACTTTTTCTTTTTTTTT [CACACA_site2780],9.2 ± 0.32
9,ATAATTCCAAGAATTTCATATATCTGAATTTTAGGT [GTGCAC_negctrl_site283],8.53 ± 0.4
10,AATAAACATAAATAAAAATTATAAAATATATATATG [CACACA_negctrl_site1709],8.64 ± 0.51
11,TTTACATTTCAGTAGACACACAAAAAATAATACTAA [CACACA_site512],8.76 ± 0.43
12,TCATACATGTATATGTGTACATATAATGTATATTCC [XGTACX_site6082],8.84 ± 0.4
13,TTATATTCTTTTCTCTTTCTACTTTTTTTTTTTTTT [XGTACX_negctrl_site317],8.45 ± 0.69
14,AAGAAAAACTTATATATATATATATATATATATATA [TGCATGCA_negctrl_site466],9.79 ± 0.11
15,TATAAATATTTATGTACACACATATACATGTTGAAT [CACACA_site5684],9.12 ± 0.47
16,AAAAAAAAAAAAAAAAGTACAAAAAGAAGAAAAAAA [XGTACX_site6521],8.59 ± 0.53
17,TTTTTTTTTTTTTTTTTTTTTTTATGTTCTTAAAAA [GTGCAC_negctrl_site62],8.2 ± 0.27
18,TTTTTTTTTTTTACGTGTACATAAATGTTAAGTAAT [XGTACX_site3901],8.58 ± 0.47
